The values below come from publication PMC5834211.

The target in assay [1] is T1, HA-DHX29 (full-length, FL-DHX29) (human) (UniProt Q7Z478).
T1 sequence: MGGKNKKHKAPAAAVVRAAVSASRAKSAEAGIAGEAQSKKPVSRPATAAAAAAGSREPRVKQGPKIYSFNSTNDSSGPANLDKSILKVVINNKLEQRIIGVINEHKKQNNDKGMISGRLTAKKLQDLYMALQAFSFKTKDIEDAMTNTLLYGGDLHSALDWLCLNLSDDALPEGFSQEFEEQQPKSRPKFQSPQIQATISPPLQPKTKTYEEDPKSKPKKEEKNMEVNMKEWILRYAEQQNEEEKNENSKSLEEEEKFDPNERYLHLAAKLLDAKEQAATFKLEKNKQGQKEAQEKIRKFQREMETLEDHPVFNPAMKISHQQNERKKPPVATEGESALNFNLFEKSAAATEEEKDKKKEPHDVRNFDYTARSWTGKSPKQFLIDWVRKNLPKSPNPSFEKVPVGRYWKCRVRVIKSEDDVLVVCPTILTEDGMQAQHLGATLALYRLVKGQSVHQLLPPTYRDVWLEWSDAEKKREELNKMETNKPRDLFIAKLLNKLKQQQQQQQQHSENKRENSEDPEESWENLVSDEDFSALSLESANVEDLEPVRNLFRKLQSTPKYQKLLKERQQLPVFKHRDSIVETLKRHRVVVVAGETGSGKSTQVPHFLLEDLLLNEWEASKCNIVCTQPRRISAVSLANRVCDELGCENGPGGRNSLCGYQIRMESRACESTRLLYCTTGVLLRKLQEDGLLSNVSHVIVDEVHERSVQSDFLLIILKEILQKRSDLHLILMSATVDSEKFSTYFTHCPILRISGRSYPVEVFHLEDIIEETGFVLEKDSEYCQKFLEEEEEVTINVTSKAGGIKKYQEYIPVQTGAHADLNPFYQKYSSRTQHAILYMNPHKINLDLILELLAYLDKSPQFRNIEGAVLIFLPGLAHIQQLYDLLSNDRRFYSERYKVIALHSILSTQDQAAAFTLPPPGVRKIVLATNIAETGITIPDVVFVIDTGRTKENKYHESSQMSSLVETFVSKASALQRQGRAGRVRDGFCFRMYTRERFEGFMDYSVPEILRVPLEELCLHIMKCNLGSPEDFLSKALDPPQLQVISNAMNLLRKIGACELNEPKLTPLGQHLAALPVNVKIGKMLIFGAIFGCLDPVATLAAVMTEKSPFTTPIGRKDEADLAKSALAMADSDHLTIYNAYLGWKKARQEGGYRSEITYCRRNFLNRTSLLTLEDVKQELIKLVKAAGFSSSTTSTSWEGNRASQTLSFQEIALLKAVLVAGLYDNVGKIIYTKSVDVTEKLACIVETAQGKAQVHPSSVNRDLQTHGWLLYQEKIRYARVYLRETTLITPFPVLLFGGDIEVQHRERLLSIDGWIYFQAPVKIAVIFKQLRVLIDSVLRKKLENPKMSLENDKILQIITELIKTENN
As to the kind of experiment: co-IP; 293T cells cotransfected; whole cell lysates immunoprecipitated with anti-HA beads, immunoblotted with anti-Flag (Fig 5A, Fig 6A); also in RIG-I knockout 293T cells (S5D Fig).

Assay [2] addresses T2, HA-DHX29c [530-1369 aa] (human) (UniProt Q7Z478).
T2 sequence: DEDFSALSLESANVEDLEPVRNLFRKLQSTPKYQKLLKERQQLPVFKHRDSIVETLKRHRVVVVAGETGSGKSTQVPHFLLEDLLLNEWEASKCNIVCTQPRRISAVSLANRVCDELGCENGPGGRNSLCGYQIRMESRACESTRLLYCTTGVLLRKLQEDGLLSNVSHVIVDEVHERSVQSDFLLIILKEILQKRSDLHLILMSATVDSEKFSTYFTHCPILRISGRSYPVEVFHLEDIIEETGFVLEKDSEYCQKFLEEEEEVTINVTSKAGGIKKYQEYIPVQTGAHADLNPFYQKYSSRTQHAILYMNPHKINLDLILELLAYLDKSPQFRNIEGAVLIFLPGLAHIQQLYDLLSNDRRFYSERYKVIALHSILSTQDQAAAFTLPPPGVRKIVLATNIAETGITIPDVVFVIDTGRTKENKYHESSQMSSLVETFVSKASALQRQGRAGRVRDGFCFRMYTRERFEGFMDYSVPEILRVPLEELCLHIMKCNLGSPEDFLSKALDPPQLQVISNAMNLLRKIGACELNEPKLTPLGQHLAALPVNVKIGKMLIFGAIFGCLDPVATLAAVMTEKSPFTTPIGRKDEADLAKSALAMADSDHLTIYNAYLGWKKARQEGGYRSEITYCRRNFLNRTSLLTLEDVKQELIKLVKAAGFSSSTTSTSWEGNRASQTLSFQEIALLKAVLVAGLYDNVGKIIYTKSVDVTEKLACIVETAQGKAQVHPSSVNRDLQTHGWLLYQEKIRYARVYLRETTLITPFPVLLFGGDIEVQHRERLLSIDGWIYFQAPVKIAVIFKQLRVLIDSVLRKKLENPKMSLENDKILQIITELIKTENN
The description is as above.

No constants are given. Whether binding was seen depends on the method and setting. In cells and extracts the contact can be indirect. Some results given as binding are weak or reduced against the parent protein; the word gives no strength. Tags and fused reporters may be left off the sequences shown.

B1: Flag-MDA5 (full-length, FL-MDA5) (protein, UniProt Q9BYX4 1-1025)
chain: MSNGYSTDENFRYLISCFRARVKMYIQVEPVLDYLTFLPAEVKEQIQRTVATSGNMQAVELLLSTLEKGVWHLGWTREFVEALRRTGSPLAARYMNPELTDLPSPSFENAHDEYLQLLNLLQPTLVDKLLVRDVLDKCMEEELLTIEDRNRIAAAENNGNESGVRELLKRIVQKENWFSAFLNVLRQTGNNELVQELTGSDCSESNAEIENLSQVDGPQVEEQLLSTTVQPNLEKEVWGMENNSSESSFADSSVVSESDTSLAEGSVSCLDESLGHNSNMGSDSGTMGSDSDEENVAARASPEPELQLRPYQMEVAQPALEGKNIIICLPTGSGKTRVAVYIAKDHLDKKKKASEPGKVIVLVNKVLLVEQLFRKEFQPFLKKWYRVIGLSGDTQLKISFPEVVKSCDIIISTAQILENSLLNLENGEDAGVQLSDFSLIIIDECHHTNKEAVYNNIMRHYLMQKLKNNRLKKENKPVIPLPQILGLTASPGVGGATKQAKAEEHILKLCANLDAFTIKTVKENLDQLKNQIQEPCKKFAIADATREDPFKEKLLEIMTRIQTYCQMSPMSDFGTQPYEQWAIQMEKKAAKEGNRKERVCAEHLRKYNEALQINDTIRMIDAYTHLETFYNEEKDKKFAVIEDDSDEGGDDEYCDGDEDEDDLKKPLKLDETDRFLMTLFFENNKMLKRLAENPEYENEKLTKLRNTIMEQYTRTEESARGIIFTKTRQSAYALSQWITENEKFAEVGVKAHHLIGAGHSSEFKPMTQNEQKEVISKFRTGKINLLIATTVAEEGLDIKECNIVIRYGLVTNEIAMVQARGRARADESTYVLVAHSGSGVIEHETVNDFREKMMYKAIHCVQNMKPEEYAHKILELQMQSIMEKKMKTKRNIAKHYKNNPSLITFLCKNCSVLACSGEDIHVIEKMHHVNMTPEFKELYIVRENKALQKKCADYQINGEIICKCGQAWGTMMVHKGLDLPCLKIRNFVVVFKNNSTKKQYKKWVELPITFPNLDYSECCLFSDED
For the molecule B1, the binding result in assay [1] is “binds”; in assay [2], “no binding”.
